Data taken from paper PMC12136788.
The list shows a part of the results.

T1: UNK ZnF1-6 (called full-length) (human, UniProt Q9C0B0 30-357)
T1 sequence: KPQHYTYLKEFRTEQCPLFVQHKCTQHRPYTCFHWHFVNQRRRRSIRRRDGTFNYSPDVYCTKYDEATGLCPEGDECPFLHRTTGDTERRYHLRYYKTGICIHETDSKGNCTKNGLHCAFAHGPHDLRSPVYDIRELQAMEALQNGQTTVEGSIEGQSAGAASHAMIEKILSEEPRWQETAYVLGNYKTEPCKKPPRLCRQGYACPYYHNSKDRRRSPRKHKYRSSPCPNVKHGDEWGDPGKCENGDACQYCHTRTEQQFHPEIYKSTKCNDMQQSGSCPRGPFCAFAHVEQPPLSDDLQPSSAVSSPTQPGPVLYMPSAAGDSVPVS

B1: chr10:73423578:73424772:-|three_prime_utr|ENSG00000166343|control|control|control (ssRNA)
RNA: GGGAGUUCUACAGUCCGACGAUCCCAGUAUACUGCAGUGCAUACUAUAUCAUGUUUCUUGGAAGCUCCUGUCAGCUGGAUAAUAGGCAAUUAGAAGAGAAAGUGGACGGCGGGAUUUAAAUAGAUCAUAACUGGACAUCUGGACAACAGAGGAUUGAGCAUCA
B2: chr15:43456694:43456846:-|CDS|ENSG00000067369|unk|FALSE|unique (ssRNA)
RNA: GGGAGUUCUACAGUCCGACGAUCAGACACCAGGGAUGACAUUAGUAUUUUAGCCACUGGUUGCAAGGGCAGAGAAGAAACGGUAGCAGAAGAUGUUUGUAUUGAUCUCACUUGUGAUUCGGGGAGUCAGGCAGUUCCGUCACCCAACAGAGGAUUGAGCAUCA
B3: chr17:41822664:41822765:+|3pUTR|ENSG00000141756|msi1|total|mutant (ssRNA)
RNA: GGGAGUUCUACAGUCCGACGAUCUUCCUUAAAAUGUUUGGAUUUGCAAAGCCAAUUUGGGGCCUGUGGAGCCUGGGGUUGGACCGGGCCAUGGCUGGUCCCCCACCAUACCUCCCCUCCACAUCACUGACACAGCUGAGCUUGCAACAGAGGAUUGAGCAUCA
B4: chr5:72209348:72209524:+|3pUTR|ENSG00000131711|msi1_unk|FALSE|overlapping (ssRNA)
RNA: GGGAGUUCUACAGUCCGACGAUCUUAUGUCUUAUAAUCCUGCAUCACUUCUAUCCUAUCCAGUCAUAUCUAAUGUAGAAAAUUAGUUUCCAGUGAAAGUAAUAUGUAGUGCUUUUAUGAUAUUUGUGUGCAAUAUCCCCUCUUCAACAGAGGAUUGAGCAUCA
B5: chr11:20048915:20049016:+|CDS|ENSG00000166833|unk|total|mutant (ssRNA)
RNA: GGGAGUUCUACAGUCCGACGAUCGAGCAGUGGGAGCAGCAGUCCUCUCUACAGCAAGAAUGUGGACCUCAACCAGUCUCCGCCCGCCUCCAGCCCCAGCUCAGCCCACUCGGCCCCUUCCAACAGCCUCACCUGGGGCACCAACAACAGAGGAUUGAGCAUCA
B6: chr6:149410404:149410522:+|3pUTR|ENSG00000055208|unk|FALSE|bound_elsewhere (ssRNA)
RNA: GGGAGUUCUACAGUCCGACGAUCUUAUAUUUCUAUAUGUAUAGUGUAAUAGCCUUUUGUUAACUAAUUUUCUUUUUUCCUUUUAGUAAUUAAGCACGAUCAUGUCCCUUUUUAAGCCUUACCUGAGAGGAACAAUGCCUUAAACAACAGAGGAUUGAGCAUCA
B7: chr10:30336814:30336915:-|CDS|ENSG00000107951|unk|total|mutant (ssRNA)
RNA: GGGAGUUCUACAGUCCGACGAUCGUAUUUUCCAGACUGCACCGUCAGACCCUUUGGCUCCUCAGUCAACACUUUUGGGAAGUCCGGAUGUGAUUUGGACAUGUUUUUGGAUCCCGAUGAAACCAGAAACCUCAGCGCUCACAACAACAGAGGAUUGAGCAUCA
B8: chr12:66123492:66123593:-|3pUTR|ENSG00000139233|msi1|total|mutant (ssRNA)
RNA: GGGAGUUCUACAGUCCGACGAUCAUGCUACCCAAUAUCCAGUUAUAAUCAGGCCUCAACGUUCUGUCAGGUAUUAAUAUGGUCCGAAUUGUUCUUACAACUGGUAAUUACCGUCAACCGAGAUAAAACAGAUGAUGUACUGACCAACAGAGGAUUGAGCAUCA
B9: chr15:90501451:90501552:+|3pUTR|ENSG00000140575|msi1_unk|total|mutant (ssRNA)
RNA: GGGAGUUCUACAGUCCGACGAUCCUGAGCCUCUAUUUUCUUUCUUUGAUGUUUUGAUUCAGUAUUCUUUUAUCAUAAAUUUUCCGCAUUUAAAAAUUCACUGAUGUACAUUAAGCCAAUAAACUGCUUUAAUGAAUAACAAACCAACAGAGGAUUGAGCAUCA
B10: chr1:203741760:203741861:+|3pUTR|ENSG00000058668|msi1|FALSE|unique (ssRNA)
RNA: GGGAGUUCUACAGUCCGACGAUCAUUUUGGUUUUGUAAAACGUACAUGCUUCAAUAAUUCUUUUUUGUGUCUUAAAUACUCAUAGGGGAAAAAAACAGCUCACCCAAGGUGUUAGGUUUCACAUAUAUAUUCAUCAACUAUUUCAACAGAGGAUUGAGCAUCA
B11: chr19:34469546:34469571:+|3pUTR|ENSG00000126261|msi1_unk|FALSE|overlapping (ssRNA)
RNA: GGGAGUUCUACAGUCCGACGAUCGUUGCCUUUUUAAUGUAAAUACCCGUAGGUAUCAUUAAUAGUUUCAAAAUAUUGUGGUUUAGUAAAGUUGAUACCUGGUUAUAAAUAUUAUGCCUUUAUUUUUGGCUAGAAGAAGAAUUACAACAGAGGAUUGAGCAUCA
B12: chr9:37357341:37357442:+|3pUTR|ENSG00000147905|unk|total|mutant (ssRNA)
RNA: GGGAGUUCUACAGUCCGACGAUCAUUAUCUAUGAUUAAAUAAAGUGAGUUUUUGGUUUUGUUUUUUUAAUUUCAGCCAUUCCCCGAGUUACUGAAUAUCCAUGGAGAUCUCAAUUCUCUGUGUCCAACAGGAUAUCCGGUAAGCAACAGAGGAUUGAGCAUCA
B13: chr7:93208579:93208876:-|CDS|ENSG00000188175|control|control|control (ssRNA)
RNA: GGGAGUUCUACAGUCCGACGAUCUGACAAUACUACAUAUAUCAUUAAGCAUGGGCCUCGCUUAGAAGUUGCAUCUGAGAAAGUAGCCCAGAAGACAAUGGACUAUGUGUGCUGUGCUUACAACAACAUAACCGGCAGGCAAGACAACAGAGGAUUGAGCAUCA
B14: chr18:47840682:47840783:-|3pUTR|ENSG00000175387|unk|FALSE|unique (ssRNA)
RNA: GGGAGUUCUACAGUCCGACGAUCAUACCGUUUUUCCAAAGGUAUUUUACAAUAUUUCAACAGCAGACCUUCUGCUCUUCGAGUAGUUUGAUUUGGUUUAGUAACCAGAUUGCAUUAUGAAAUGGGCCUUUUGUAAAUGUAAUUCAACAGAGGAUUGAGCAUCA

The binders below were run against T1, UNK ZnF1-6 (called full-length) (assay: nsRBNS (natural sequence RNA bind-n-seq); RBNS binding buffer (assumed for nsRBNS): 25 mM Tris pH 7.5, 150 mM KCl, 3 mM MgCl2, 0.01% Triton X-100, 500 ug/ml BSA, 20 U/ml SUPERase-In, 4 C; UNK is unkempt and MSI1 is Musashi-1; names of the RNAs are library labels; protein concentration not given here; high values mean tight binding).

Binder | binding signal
B1 | 1.23 enrichment R
B2 | 2.14 enrichment R
B3 | 0.628 enrichment R
B4 | 1.93 enrichment R
B5 | 0.913 enrichment R
B6 | 66 enrichment R
B7 | 0.61 enrichment R
B8 | 0.232 enrichment R
B9 | 0.789 enrichment R
B10 | 1.41 enrichment R
B11 | 9.94 enrichment R
B12 | 0.382 enrichment R
B13 | 0.768 enrichment R
B14 | 0.534 enrichment R
